This is one part of the list. The energies were worked out here from pooled read counts, against the library average; single values are noisy.
Molecular target: T1, Pho4 (S. cerevisiae) (UniProt P07270)
T1 sequence: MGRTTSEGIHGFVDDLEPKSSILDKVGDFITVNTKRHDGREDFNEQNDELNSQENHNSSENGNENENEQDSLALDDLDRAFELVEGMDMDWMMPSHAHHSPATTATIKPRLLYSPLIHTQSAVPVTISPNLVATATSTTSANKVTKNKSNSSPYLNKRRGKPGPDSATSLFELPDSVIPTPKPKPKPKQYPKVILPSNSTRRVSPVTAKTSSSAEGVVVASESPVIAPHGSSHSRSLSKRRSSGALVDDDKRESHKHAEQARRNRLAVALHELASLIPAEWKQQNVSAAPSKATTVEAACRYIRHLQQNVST
Assay: relative binding free energy (BET-seq); higher = weaker binding
Conditions: reference: library average

Row | Sequence | relative binding free energy [kcal/mol]
1 | GTTTTCACGTGTTGGT | 0.32
2 | GTTTGCACGTGTTGGG | 0.14
3 | TTGTACACGTGAGCAT | 0.3
4 | GATGGCACGTGTTAGG | 0.06
5 | AGTGCCACGTGTGCTG | -0.12
6 | GGGGACACGTGCAATG | 0.11
7 | GGATTCACGTGGATGA | 0.35
8 | AAAGTCACGTGCGGTG | 0.05
9 | CTGTGCACGTGTCGGT | 0.02
10 | CGATTCACGTGTTGGT | 0.29
11 | ATTTTCACGTGTTTGG | 0.3
12 | AATGGCACGTGTAAAG | 0.13
13 | AGATTCACGTGTCGTG | 0.07
14 | TTCTGCACGTGTTAAG | 0.13
15 | ATTTTCACGTGGGCAA | 0.2
16 | TTAGACACGTGGGGGG | -0.09
17 | GTAAGCACGTGTAGGA | -0.11
18 | ATATGCACGTGTTGTA | -0.07
19 | TTGTCCACGTGGTTTT | 0.05
20 | GACGGCACGTGTTTTT | 0.1
21 | ATGGTCACGTGGTGAT | 0.03
22 | GGTTCCACGTGGGCGA | 0.1
23 | AGATGCACGTGGTTTA | -0.24

Row | Sequence | relative binding free energy [kcal/mol]
24 | TGGGTCACGTGTGTCG | 0.12
25 | TTGTGCACGTGCCTTT | -0.18
26 | GTGGTCACGTGAGCGA | 0.23
27 | AGGTGCACGTGGATAG | -0.15
28 | TGTGACACGTGCATTG | 0.09
29 | ACTGGCACGTGGGAAG | -0.17
30 | TATTACACGTGAGATT | 0.24
31 | TGCCTCACGTGGTTTG | 0.13
32 | TAATTCACGTGTCGGT | 0.23
33 | TTATACACGTGTATTA | -0.05
34 | TATAACACGTGTGGAA | 0.19
35 | AGGGTCACGTGATAGT | 0.26
36 | TTCTGCACGTGTTTAA | -0.04
37 | TATAACACGTGGTTGA | -0.15
38 | AGGGTCACGTGGTATG | 0.02
39 | CATGTCACGTGTTATG | 0.06
40 | TTGGACACGTGATGTT | 0.15
41 | CTATACACGTGGGAGT | -0.11
42 | TTGCGCACGTGCTGTT | -0.25
43 | AGAAGCACGTGTGTCG | -0.03
44 | AGGTGCACGTGAAGGC | 0.29
45 | ATGCTCACGTGGTTTA | 0.1
46 | AGGGTCACGTGTAATG | 0.14

Row | Sequence | relative binding free energy [kcal/mol]
47 | TGGGACACGTGTAGCG | 0.01
48 | GCAGTCACGTGTTAGT | 0.16
49 | GATTTCACGTGACGGG | 0.42
50 | ATGTTCACGTGGTAGT | 0.22
51 | TTTCGCACGTGAGTGT | 0.01
52 | TATGGCACGTGGCGCT | -0.18
53 | ATTTACACGTGTATGT | 0.12
54 | GGTTACACGTGGCGTT | 0.09
55 | TGGTTCACGTGGGTGC | 0.15
56 | GGTCGCACGTGTGCTG | -0.03
57 | AGGTGCACGTGACGGG | 0.16
58 | ATGAGCACGTGATGTC | 0.06
59 | ATATACACGTGGTGTT | -0.03
60 | CTTAACACGTGTGGGT | -0.1
61 | TTGCGCACGTGTGGGG | -0.05
62 | CGGGGCACGTGGAGTG | -0.08
63 | AGTGACACGTGAGTGG | 0.07
64 | GCTGGCACGTGTAGCG | -0.03
65 | AAGTACACGTGAATGG | 0.34
66 | CGGGGCACGTGTTTTC | -0.04
67 | GCAGTCACGTGGGGTG | -0.08
68 | CTGCTCACGTGTGAGG | 0.38
69 | AGATGCACGTGATGAT | 0.02

Row | Sequence | relative binding free energy [kcal/mol]
70 | TTGCGCACGTGGTTTT | -0.08
71 | AGTGGCACGTGAAGCT | 0.02
72 | TGGGGCACGTGTTCCG | -0.23
73 | TGAGTCACGTGGTATC | 0.08
74 | GGGATCACGTGCAGTT | 0.15
75 | GGGTACACGTGCGTTA | -0.12
76 | GAGTACACGTGGGAAG | 0.11
77 | TCTTGCACGTGGTCGT | -0.03
78 | TACTTCACGTGGGCGG | 0.04
79 | GGGGGCACGTGAGAGG | 0.06
80 | AAGTGCACGTGGGTCT | -0.23
81 | AGATACACGTGAGGAG | 0.26
82 | TTATACACGTGGGTTA | -0.1
83 | CATTACACGTGGGGGG | 0
84 | ATGATCACGTGGGTAT | 0
85 | GGTGGCACGTGGGCCG | -0.29
86 | TGTCGCACGTGGGAGC | -0.21
87 | GGTAGCACGTGGCAGG | -0.1
88 | GGATGCACGTGTCCGG | 0.02
89 | CGTCGCACGTGGGGAT | -0.33
90 | TAAGACACGTGGGTTG | 0.01
91 | GTGTTCACGTGAAAAA | 0.42
92 | ATGTACACGTGGTTGG | -0.02

Row | Sequence | relative binding free energy [kcal/mol]
93 | TGAAACACGTGGGTTT | -0.06
94 | TTGACCACGTGTTGCG | 0.06
95 | ATGTGCACGTGCAGCT | -0.02
96 | ACTGGCACGTGTGAGG | -0.07
97 | TTGTTCACGTGAAATA | 0.38
98 | TTTTCCACGTGTTGAG | -0.02
99 | GGGGGCACGTGGATCG | -0.07
100 | TTAGTCACGTGAAGTT | 0.38
101 | GGAGGCACGTGTTATT | -0.04
102 | GTTACCACGTGCAGTT | 0.23
103 | AGTTTCACGTGTAGAC | 0.26
104 | TGGTTCACGTGCTATG | 0.11
105 | AGGTGCACGTGTGATT | 0.13
106 | AGGTTCACGTGGTTAT | 0.24
107 | TAGTCCACGTGGGTTG | -0.03
108 | TCCATCACGTGGGGTT | -0.1
109 | GGGGGCACGTGGACTA | -0.03
110 | TGGCACACGTGGTTTA | -0.07
111 | TCAATCACGTGTGGAT | 0.12
112 | GGGGTCACGTGCTGAG | 0.12
113 | TTAGGCACGTGACTTG | -0.04
114 | TTTTGCACGTGGAGCG | -0.01
115 | GAGCCCACGTGGGTTG | 0
